Assay results: PubChem BioAssay AID652104 (National Center for Advancing Translational Sciences (NCATS), 2013)
In all, about 410,000 compounds went through this assay and about 7,200 (1.8%) were called active. Inconclusive results, whose numbers are uncertain, are shown with a selection of clear calls. Calls come from the whole dose curve; as a rule, active = well fitted activation curve with a large enough effect; inconclusive = small, poorly fitted or top-dose-only effect, or another doubt; inactive = no such curve, though single readings can be large or run the other way. No potency is given beside an inconclusive call; the fits are too rough.
Potency is the fitted concentration of half-maximal effect; tags give direction and shape of the fitted curve.

Assay: qHTS of TDP-43 Inhibitors; note: nearly all actives have a fitted effect of over 50% in size
Settings: TDP-43 expressing yeast growth rescue, BacTiter-Glo, 24 h; series mostly up to 46.1 µM
How it was run: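 Yeast expressing TDP-43 (pregrown in raffinose, seeded at OD600=0.02 in galactose medium) exposed to compounds 24 hr at 30 deg C. Growth read by BacTiter-Glo luminescence; rescue of toxicity appears as increased signal.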
For `O=C(Nc1ccc2c(c1)OCCO2)C(c1cc2ccccc2o1)N1CCN(c2ccc(C(F)(F)F)cn2)CC1` (configuration not stated), the Potency was inconclusive [activator, partial curve]. For `CC1(C)CC(=O)C(N=Nc2cc(Cl)c(Cl)c(Cl)c2)=C(O)C1`, the Potency was “inactive”. With `COc1ccc(N2CCN(c3ncnc4scc(-c5ccc(F)cc5)c34)CC2)cc1` the Potency was active: 12.6 µM. In the case of `CCOC(=O)N1CCc2c(sc3c2c(=O)n(Cc2ccccc2)c(=O)n3Cc2ccccc2Cl)C1`, the Potency is reported as “inactive”. For `COc1ccccc1N1CCN(C(=O)Nc2ccc([N+](=O)[O-])cc2)CC1`, the Potency was active: 14.1 µM. For `CC(C)(C)c1ccc(COc2ccsc2C(=O)O)cc1`, the Potency was inconclusive [activator, single point]. With `CCN(CC)S(=O)(=O)c1ccc(-c2csc(C)n2)s1` the Potency was inconclusive [activator, single point]. For `CC(=O)c1ccc(N2CCN(c3ncnc4c3nc3n4CCCC3)CC2)cc1`, the Potency was “inactive”. In the case of `COc1ccc(NC(=O)C(c2cc3ccccc3o2)n2c(=O)c(-c3cc4ccccc4[nH]3)nc3ccccc32)cc1` (configuration not stated), the Potency is reported as inconclusive [activator, full curve]. For `c1ccc(CCCc2nc(-c3cccnc3)no2)cc1`, the Potency was active: 8.91 µM. In the case of `CC(C)Oc1ccc(CSC(=N)N)cc1`, the Potency is reported as “inactive”. In the case of `Cc1ccccc1NC(=O)Cc1nc(COC(=O)CCc2ccccc2)cs1`, the Potency is reported as inconclusive [activator, single point]. With `COCCCNC(=O)c1ccc(-n2c(-c3ccccc3)cc3c2CCC(C)C3)cc1` (configuration not stated) the Potency was “inactive”. In the case of `COc1cccc(N2CCN(C(=O)c3cccn3-c3nnc(N4CCCC4)s3)CC2)c1`, the Potency is reported as “inactive”. For `O=[N+]([O-])c1ccc(S(=O)(=O)N2CCSC2c2ccco2)cc1` (configuration not stated), the Potency was inconclusive [activator, single point]. With `Cc1ccc2[nH]c(C(=O)N3CCCC(Nc4ccc(F)cc4)C3)cc2c1` (configuration not stated) the Potency was active: 22.4 µM. In the case of `COc1cccc(C2NC(=O)c3ccccc3O2)c1OC` (configuration not stated), the Potency is reported as inconclusive [activator, single point]. In the case of `CCCC1NC(=O)c2cccnc2-n2c1nc1cc(F)c(F)cc1c2=O` (configuration not stated), the Potency is reported as “inactive”. For `COc1cc(-n2nnnc2SCC(=O)N2CCN(c3ccc(F)cc3)CC2)c(OC)cc1Cl`, the Potency was inconclusive [activator, single point]. With `CCc1noc(C)c1C(=O)Nc1cc(Cl)ccc1N1CCOCC1` the Potency was inconclusive [activator, single point]. With `COc1ccc(NC(=O)CC2C(=O)N(C)C(=S)N2CCc2ccc(F)cc2)cc1` (configuration not stated) the Potency was inconclusive [activator, partial curve]. For `CCCC(=O)Oc1ccc(C2NC(=O)c3ccccc3O2)cc1` (configuration not stated), the Potency was inconclusive [activator, partial curve]. For `COc1ccc(C(=O)OCCOc2cccc(Cl)c2)cc1S(=O)(=O)N1CCOCC1`, the Potency was inconclusive [activator, single point]. For `Cc1ccc(-c2csc(NC(=O)c3c(C)noc3C)n2)cc1C`, the Potency was inconclusive [activator, full curve]. With `COc1ccc(CCN2C(=O)c3oc4cc(C)cc(C)c4c(=O)c3C2c2ccccc2F)cc1OC` (configuration not stated) the Potency was “inactive”. With `COc1cccc(-c2nnc(SCC(=O)NC3CCCCC3)o2)c1` the Potency was inconclusive [activator, partial curve]. In the case of `CC(O)(c1ccccc1)c1nc(-c2ccc3c(c2)OCO3)cs1` (configuration not stated), the Potency is reported as inconclusive [activator, partial curve]. In the case of `O=C(OCc1cccc(Cl)c1)c1cc([N+](=O)[O-])ccc1N1CCOCC1`, the Potency is reported as active: 20 µM. In the case of `COCc1cc(C)nc2sc(C(=O)OC)c(N)c12`, the Potency is reported as active: 12.6 µM. For `Cc1cccc(C(=O)Oc2ccc(/C=N/O)cc2)c1`, the Potency was inconclusive [activator, single point]. With `O=C(C1CC1)N1CCc2cc(Br)cc(S(=O)(=O)NC3CCCCC3)c21` the Potency was “inactive”. In the case of `COc1ccnc2c1c(=O)n(Cc1ccccc1Cl)c(=O)n2C`, the Potency is reported as inconclusive [activator, single point]. For `CCOc1cccc(N)c1`, the Potency was inconclusive [activator, partial curve]. With `Cc1cc(-c2ccc(Cl)cc2)n2nc(C)cc2n1` the Potency was inconclusive [activator, partial curve]. For `CCCCOc1ccc(C(C)NC(=O)c2cccc(Nc3nc4ccccc4n4nnnc34)c2)cc1` (configuration not stated), the Potency was “inactive”. With `O=C(Cn1ccc([N+](=O)[O-])n1)c1ccccc1` the Potency was inconclusive [activator, single point]. For `O=C(/C=C/c1cccc(Oc2ccccc2)c1)N1CCOCC1`, the Potency was inconclusive [activator, partial curve]. With `CCOc1cc(C(=S)N2CCOCC2)ccc1OC(=O)/C=C/c1ccc(OC)c(OC)c1` the Potency was “inactive”. For `O=C(COC(=O)/C=C/c1ccc(C(F)(F)F)cc1)NC1CC1`, the Potency was active: 6.31 µM. For `CC(=O)c1cc(-c2ccccc2)n(CC(=O)NC(C)(C)C)c1C`, the Potency was “inactive”. In the case of `COc1ccc(C(=O)Nc2ccc(OCC(F)(F)C(F)F)c(C(F)(F)F)c2)cc1OC`, the Potency is reported as inconclusive [activator, single point]. In the case of `Cc1c(C2(O)CCCCC2)[nH]c2ccc(C#N)cc12`, the Potency is reported as “inactive”. For `COc1ccc(Cl)cc1NC(=O)C1CCN(c2nnc(C)c3c(C)n(-c4ccccc4)nc23)CC1`, the Potency was “inactive”. In the case of `O=C(C[n+]1ccc(C(=O)N/N=C/c2ccc(OCc3ccccc3)cc2)cc1)c1ccccc1`, the Potency is reported as inconclusive [activator, single point]. For `COc1ccc(N=Cc2c(O)[nH]c3ccccc23)cc1`, the Potency was inconclusive [activator, partial curve]. In the case of `O=c1c(-c2nnc(SCc3ccc(Cl)cc3Cl)o2)cccn1Cc1ccccc1`, the Potency is reported as inconclusive [activator, single point]. In the case of `O=C(O/N=C1/CCSc2ccccc21)c1ccccc1`, the Potency is reported as inconclusive [activator, partial curve]. For `COc1ccc(Cl)cc1NC(=O)CCS(=O)(=O)c1cccc2nonc12`, the Potency was “inactive”. For `C[C@@H]1CN([C@H](C)CO)C(=O)c2cc(C3=CCCCC3)cnc2O[C@@H]1CN(C)Cc1ccccc1C(=O)O`, the Potency was inconclusive [activator, full curve, poor fit]. For `Cc1ccc(C)c(OCC(=O)O/N=C(\N)c2cccnc2)c1`, the Potency was inconclusive [activator, single point]. For `COc1ccc(CNC(=O)CCCN2C(=O)CSc3c2c(C)nn3-c2ccccc2)c(OC)c1`, the Potency was inconclusive [activator, partial curve]. In the case of `CCSc1nnc2c(n1)OC(c1ccc(C)cc1)N(C(C)=O)c1ccccc1-2` (configuration not stated), the Potency is reported as “inactive”. In the case of `CCOc1ccc(C2=Nn3c(nnc3-c3ccco3)SC2)cc1`, the Potency is reported as inconclusive [activator, full curve, poor fit]. With `CC1(C)CC2(CCCN3C(=O)CSC32)CCS1` (configuration not stated) the Potency was “inactive”. For `O=C(COc1ccc2ccccc2c1)N1CCN(c2ccccc2O)CC1`, the Potency was inconclusive [activator, single point]. For `O=C(COC(=O)/C=C/c1ccc(F)cc1)NCc1cccs1`, the Potency was inconclusive [activator, partial curve]. For `O=[N+]([O-])c1cc(Cl)ccc1N1CCN(c2ccccc2O)CC1`, the Potency was inconclusive [activator, single point]. With `Cc1cc(C)c(NS(=O)(=O)c2ccc(-c3cnc(C4CC4)o3)cc2)c(C)c1` the Potency was inconclusive [activator, single point]. In the case of `c1ccc(-c2nnsc2Sc2ccccn2)cc1`, the Potency is reported as inconclusive [activator, single point]. In the case of `CCCCCC(C)n1[nH]c(=O)c2c(C)cc(C)nc21` (configuration not stated), the Potency is reported as inconclusive [activator, partial curve]. In the case of `COc1ccc(Cl)cc1NC(=O)CN(C)S(=O)(=O)c1cccs1`, the Potency is reported as inconclusive [activator, single point]. In the case of `COc1ccc(N2C(=O)CC(N3CCC(c4nc5ccccc5[nH]4)CC3)C2=O)cc1` (configuration not stated), the Potency is reported as inconclusive [activator, single point]. For `CC12CCC(C(=O)NNc3ccc([N+](=O)[O-])cc3)(OC1=O)C2(C)C` (configuration not stated), the Potency was “inactive”. In the case of `CC(C)c1ccc(NC(=O)CN2C(=O)c3ccccc3S2(=O)=O)cc1`, the Potency is reported as “inactive”. In the case of `CC(C)N(C(=O)CSc1nnc(CNc2ccc(F)cc2)o1)C(C)C`, the Potency is reported as inconclusive [activator, partial curve, poor fit]. With `COc1cccc(C(O)c2nc(-c3ccc(C)c(C)c3)cs2)c1` (configuration not stated) the Potency was inconclusive [activator, single point]. For `COc1ccc(C)cc1NC(=O)CCc1c(C)nn(-c2ccc(N3CCOCC3)nn2)c1C`, the Potency was inconclusive [activator, full curve]. For `CCC(=O)n1nc(-c2cccnc2)nc1NCc1ccc(F)cc1`, the Potency was inconclusive [activator, single point]. In the case of `O=C(Cc1ccccc1[N+](=O)[O-])OCC(=O)c1ccccc1Br`, the Potency is reported as active: 12.6 µM. With `CC1(C)Cc2cccc(C(=O)Nc3ccc(Cl)cc3)c2O1` the Potency was active: 17.8 µM. In the case of `Cc1ccc(OCC(=O)Nc2ccc(C)c(S(=O)(=O)N3CCCCC3)c2)c([N+](=O)[O-])n1`, the Potency is reported as active: 14.1 µM. For `COc1cccc(OCc2nc3ccccc3n2Cc2ccccc2C)c1`, the Potency was active: 22.4 µM.
